# According to PubChem BioAssay AID485281 (National Center for Advancing Translational Sciences (NCATS), 2010):
# Screen size: about 350,000 compounds; about 260 (0.074%) were called active. This list was built around the results that the source calls inconclusive (neither active nor inactive); the mix of calls is not that of the screen. Calls come from the whole dose curve; as a rule, active = well fitted inhibition curve with a large enough effect; inconclusive = small, poorly fitted or top-dose-only effect; inactive = no such curve, though single readings can be large or run the other way. Potencies of inconclusive entries are doubtful fits and often do not repeat.
# Biological target: Ferritin light chain (Equus caballus) (UniProt P02791)
# Assay: qHTS Assay for Identification of Novel General Anesthetics; note: nearly all actives have a fitted effect of over 20% in size
# Conditions: apoferritin/1-aminoanthracene competitive binding, fluorescence; activity change, negative = displacement: at 77.5 µM (top of the series)
# In short: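 In PBS, apoferritin at 10 uM is loaded with 1-AMA from a 50% saturated solution. After 10 min of compound exposure at ambient temperature, reduced 535 nm fluorescence indicates probe displacement.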
# % is set by controls: 0 for no effect and ±100 for the full control effect; potency is the fitted concentration of half-maximal effect; tags give direction and shape of the fitted curve.
# UniProt P02791, sequence (P02791 whole entry, looked up): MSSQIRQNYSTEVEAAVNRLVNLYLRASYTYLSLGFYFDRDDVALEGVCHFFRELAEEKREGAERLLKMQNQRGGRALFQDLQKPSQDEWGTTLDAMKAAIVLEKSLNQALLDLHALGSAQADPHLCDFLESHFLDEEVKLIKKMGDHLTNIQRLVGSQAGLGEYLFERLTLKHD
SMILES,Potency,"activity change, negative = displacement"
Cc1ccc2c(c1)C(c1ccccc1)N(C(=O)c1ccc(Br)o1)CC(=O)N2 (stereo not drawn),"inconclusive: 3.55 µM [inhibitor, full curve]",–
Cc1nc(N)sc1Cc1ccc2c(c1)OCO2,"inconclusive: 44.7 µM [inhibitor, partial curve]",–
C=CCNc1ccc(N2C(=O)C3CCC(C)CC3C2=O)cc1[N+](=O)[O-] (stereo not drawn),"inconclusive: 5.62 µM [inhibitor, partial curve]",–
CCCCc1ccc(NC(=S)NCc2cccnc2)cc1,"inconclusive: 28.2 µM [inhibitor, partial curve]",–
O=C(c1ccc(C#Cc2ccccc2)o1)N1CCN(c2ccccn2)CC1,"inconclusive: 35.5 µM [inhibitor, partial curve]",–
Cc1ccc(CNS(=O)(=O)c2ccc(Br)s2)cc1,"inconclusive: 22.4 µM [inhibitor, partial curve]",–
CC(/C=N/NC(=O)CSc1nc2ccccc2n1C)=C\c1ccco1,"inconclusive: 31.6 µM [inhibitor, single point]",–
N#CCSc1nnc(-c2sc3ccccc3c2Cl)o1,–,inactive: -8.32%
O=C(Nc1cccnc1Cl)c1ccc(=O)oc1,–,inactive: -8.35%
CC(OC(=O)c1cc2sccc2n1C)C(=O)NCCc1ccccc1 (stereo not drawn),"inconclusive: 39.8 µM [inhibitor, partial curve]",–
COC(=O)c1ccc(Sc2ccccc2NS(=O)(=O)c2ccc(C)cc2)nc1,"inconclusive: 28.2 µM [inhibitor, partial curve]",–
O=C(Nc1ccc(Cl)cc1)c1cccnc1N1CCCCC1,"inconclusive: 39.8 µM [inhibitor, single point]",–
C=CCn1sc(N)c(C(=O)OCC)c1=S,"inconclusive: 31.6 µM [inhibitor, single point]",–
O=C(COC(=O)C1CC(=O)N(c2ccc3c(c2)OCCO3)C1)Nc1ccc2c(c1)CCC2 (stereo not drawn),"inconclusive: 35.5 µM [inhibitor, partial curve]",–
OCCN1CCN(CC(O)COc2ccc(-c3ccccc3)cc2)CC1 (stereo not drawn),"inconclusive: 28.2 µM [inhibitor, partial curve]",–
COc1ccc(-n2c(N)c(C(=O)NCc3ccco3)sc2=S)cc1,"inconclusive: 50.1 µM [inhibitor, single point]",–
O=[N+]([O-])c1ccc(N/N=C/c2cccc(O)c2O)c(S(=O)(=O)N2CCOCC2)c1,"inconclusive: 14.1 µM [inhibitor, partial curve]",–
CN1CCN(S(=O)(=O)c2cccc(C(=O)Nc3ccccc3N3CCCC3)c2)CC1,–,inactive: -7.21%
COc1ccc(CN2C(=S)NC(C)(C)CC2(C)O)cc1 (stereo not drawn),"inconclusive: 56.2 µM [inhibitor, single point]",–
Cc1ccc(N2CC(C(=O)OCc3ccc([N+](=O)[O-])cc3)CC2=O)cc1 (stereo not drawn),"inconclusive: 28.2 µM [inhibitor, partial curve]",–
CCC(C)(C)c1ccc(OCCCC[n+]2ccc(C)cc2)c(C(C)(C)CC)c1,"inconclusive: 15.8 µM [inhibitor, partial curve]",–
Cc1nc2nc(COc3ccccc3)nn2c(C)c1Cl,"inconclusive: 25.1 µM [inhibitor, single point]",–

SMILES,Potency,"activity change, negative = displacement"
COc1cccc(-c2cccc(NC(=O)C3CCN(Cc4ccc(C)o4)CC3)c2)c1,–,inactive: -8.68%
CCN(CC)c1ccc(/C=N/Nc2nc3ccccc3[nH]2)c(O)c1,–,inactive: 50.1%
Cc1ccc(NS(=O)(=O)N2CCOCC2)cc1,"inconclusive: 15.8 µM [inhibitor, partial curve]",–
COc1ccc(N2CCN(C(=O)c3ccccc3N(C)S(=O)(=O)c3ccccc3)CC2)cc1,"inconclusive: 44.7 µM [inhibitor, single point]",–
O=C(Cn1nc(C(=O)O)c2ccccc2c1=O)NC12CC3CC(CC(C3)C1)C2,"inconclusive: 3.98 µM [inhibitor, full curve]",–
C/C(=N/OC(=O)c1c(-c2c(F)cccc2Cl)noc1C)c1cnccn1,"inconclusive: 20 µM [inhibitor, partial curve]",–
CCOc1ccc(-c2c(C)sc3nc[nH]c(=O)c23)cc1,"inconclusive: 15.8 µM [inhibitor, partial curve]",–
Cc1nc(-c2ccc(Cl)cc2)sc1C(=O)CBr,"inconclusive: 31.6 µM [inhibitor, partial curve]",–
c1ccc(-c2onc3c2CCCC3)cc1,"inconclusive: 39.8 µM [inhibitor, partial curve]",–
COC(=O)c1[nH]c2cccc(Cl)c2c1NC(=O)CN1CCCCC1C (stereo not drawn),"inconclusive: 22.4 µM [inhibitor, partial curve]",–
CCOC(=O)C1=C(c2ccccc2)NC(=S)NC1c1cc([N+](=O)[O-])ccc1OC (stereo not drawn),–,inactive: -23.3%
CCOc1ccc(/C=N/NC(=O)c2ccccc2NC(=O)c2ccc(OC)cc2)cc1,–,inactive: -13.5%
Cc1cc2n(n1)CCCN2C(=O)Nc1ccc(C)c(Cl)c1,–,inactive: -6.56%
COc1ccc(/C=N/NC(=O)CC(=O)NCc2cccnc2)cc1,"inconclusive: 15.8 µM [inhibitor, partial curve]",–
COc1ccc(OC)c(CCNC(=O)c2cc3cccc4c3n2CCS4)c1,–,inactive: 73.5%
CCOC(=O)c1c(C)oc2ccc(N(C(=O)c3ccncc3)S(=O)(=O)c3ccc(F)cc3)cc12,"inconclusive: 8.91 µM [inhibitor, full curve, poor fit]",–
CC(=O)c1ccc(NC(=O)C2=CC(c3ccco3)=NS(=O)(=O)N2C)cc1,–,inconclusive: -24.5% [inhibitor]
COc1ccc(/C=N/n2c(SC)nnc2-c2ccccc2)cc1C,"inconclusive: 17.8 µM [inhibitor, partial curve]",–
CCCc1ccc(-c2cc(C(=O)NCCc3ccc(S(N)(=O)=O)cc3)c3ccccc3n2)cc1,"inconclusive: 28.2 µM [inhibitor, partial curve]",–
COc1ccc(OC)c(NC(=O)COC(=O)c2nc(Cl)ccc2Cl)c1,"inconclusive: 39.8 µM [inhibitor, single point]",–
CC(C)c1ccc(NC2CCCN(C(=O)c3ccco3)C2)cc1 (stereo not drawn),"inconclusive: 25.1 µM [inhibitor, partial curve]",–
